Several values for one entry are separate records, joined by “and”; a condition that tells them apart may be missing. Equal entries are not always repeated. In all, about 110,000 compounds were measured (“z-score”: median about -0.1, highest 2% from about 2 on). This is one part of the list. Activity calls are given as the source filed them.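 The calls were made as follows: active = z-score in the third read window above 3 or below -3; inactive = the rest.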

This assay concerns the target Metabotropic glutamate receptor 8 (Rattus norvegicus) (UniProt P70579). Description: mGluR8 Gi/Go-coupled signaling modulation – cell-based, rat, thallium flux, HTS, primary screen (AID 488969). Particulars: HEK293 rat mGluR8, GIRK (G protein-gated inwardly rectifying potassium channel) thallium flux, FluoZin2; at 10 µM; stronger effect = higher value; submaximal glutamate (EC20) added with thallium.
UniProt P70579, sequence (P70579 whole entry, looked up): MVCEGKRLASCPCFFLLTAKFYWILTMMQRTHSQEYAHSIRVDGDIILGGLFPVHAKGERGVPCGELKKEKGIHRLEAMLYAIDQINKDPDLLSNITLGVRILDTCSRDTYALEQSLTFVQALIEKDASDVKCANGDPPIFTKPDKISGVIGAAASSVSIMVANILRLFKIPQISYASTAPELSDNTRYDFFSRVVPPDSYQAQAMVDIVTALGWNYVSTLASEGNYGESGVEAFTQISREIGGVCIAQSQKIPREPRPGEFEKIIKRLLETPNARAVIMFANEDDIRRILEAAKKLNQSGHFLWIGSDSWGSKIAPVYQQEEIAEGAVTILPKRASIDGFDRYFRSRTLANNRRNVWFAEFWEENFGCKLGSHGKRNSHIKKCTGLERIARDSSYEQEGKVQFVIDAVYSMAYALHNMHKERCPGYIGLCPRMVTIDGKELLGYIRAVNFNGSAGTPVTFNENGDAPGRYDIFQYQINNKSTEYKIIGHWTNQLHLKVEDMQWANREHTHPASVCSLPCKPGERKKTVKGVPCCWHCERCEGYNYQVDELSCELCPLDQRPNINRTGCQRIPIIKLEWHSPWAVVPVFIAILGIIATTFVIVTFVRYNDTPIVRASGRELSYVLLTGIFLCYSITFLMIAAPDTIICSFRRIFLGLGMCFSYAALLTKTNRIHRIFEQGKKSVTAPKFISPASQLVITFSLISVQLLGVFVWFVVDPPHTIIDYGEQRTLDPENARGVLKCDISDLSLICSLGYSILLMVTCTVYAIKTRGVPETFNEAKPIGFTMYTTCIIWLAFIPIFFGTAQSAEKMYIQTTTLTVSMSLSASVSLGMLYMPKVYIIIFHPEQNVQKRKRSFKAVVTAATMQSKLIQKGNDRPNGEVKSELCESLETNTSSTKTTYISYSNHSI
`CSc1nnc(-c2nnc(SC)n2-c2ccccc2)n1-c1ccccc1` gave a z-score of -0.386.

Regarding `CCc1c(C(=O)Nc2ccccc2)c(C)[nH]c(=S)c1C#N`, the z-score came out at 0.498. With `CCCC(=O)C1=C(c2ccccc2)C(C#N)(C#N)C(C#N)=C1N` the figure was -0.464; with `Cn1cccc1-c1nc2ccc(NC(=O)c3cccs3)cc2[nH]1`, active: -3.62; with `Cc1ccccc1OC(=O)CCC(=O)OCCCC(F)(F)C(F)(F)F`, -0.253. As for `COc1cc2c(cc1NC(=O)CN(C)Cc1ccc(OC)c(OC)c1)oc1ccccc12`, the z-score was -0.329. With `O=C(COc1ccccc1-c1ccccc1)NCCN1C(=O)S/C(=C\c2cccnc2)C1=O` the figure was -0.227; with `Cc1cc(NS(=O)(=O)c2ccc(NC(=O)Nc3cccc(Cl)c3)cc2)no1`, -0.923. With `C=COCCn1c(=N)n(CCC)c2ccccc21` the figure was 0.749. The value for `COc1ccc2c(c1)CCc1c(C(=O)Nc3c(C)n(C)n(-c4ccccc4)c3=O)noc1-2` was -0.0467; that for `FC(F)(F)c1ccccc1CN1CCN(C2CCCCCC2)CC1` was -0.759; that for `Cn1c(=O)n(CC(N)=O)c2ccccc21` was 0.941. In turn, `Cc1ccc(N2C(=O)/C(=C\c3ccc(C(C)C)cc3)N=C2SC2CCOC2=O)cc1` (stereo not given) returned a z-score of 1.42. For `CCC1CCCCN1C(=O)CSc1nc2c([nH]c3ccccc32)c(=O)n1C` (stereo not given), the z-score was found to be 0.357. `CCN(CC)CCn1c(NC(=O)c2ccc(Cl)cc2)nc2ccccc21`: the z-score was active: 4.18. In the case of `Cc1ccc(CSCCNC(=O)/C=C/c2ccccc2Cl)cc1`, the z-score was -0.313.

`CC1(C)CC(=O)C2=C(C1)OC(N)=C(C#N)C21CCN(C(=O)OCc2ccccc2)CC1` gave a z-score of 0.19.

`Cc1ccc(-c2csc(C3C(N)=NC(S)=C(C#N)C34CCCCC4)n2)cc1` (stereo not given) returned a z-score of 0.125.

`COc1ccc(CNC(=O)c2cnccn2)cc1` registered a z-score of 0.391. The value for `O=C(NCC1CCCO1)c1coc2nc3ccccc3nc12` (stereo not given) was -0.034; that for `CCOC(=O)N1CCN(C(=O)Cn2c(=O)sc3ccccc32)CC1` was 0.357. With `O=c1cc(O)nc(SCc2ccccc2)n1-c1ccccc1` the figure was -0.589 and -0.489. The value for `O=C(NCSc1ccnc(SCNC(=O)c2ccccc2)n1)c1ccccc1` was 0.0913; that for `COCCNC(=O)c1ccc(C(=O)C(=O)c2ccccc2)cc1` was -0.189. The molecule `O=C(Nc1ccon1)c1cccc(Cl)c1` gave a z-score of 0.0656.

For `Cc1nc(CS(=O)c2ccccc2)cc(N2CCOCC2)n1` (stereo not given), the z-score is -0.0293. The value for `CC(C)(C)c1csc(NC(=O)Cn2cnc3ccccc3c2=O)n1` was 0.0106; that for `CC(=O)OCc1nc2sc(C)c(C)c2c(=O)[nH]1` was 0.565; that for `Cc1cc(C)nc(NS(=O)(=O)c2ccc(NC(=O)c3ccc(N4C(=O)CCC4=O)cc3)cc2)n1` was -0.171. `COc1cc2c(C(=O)NCc3ccc(C)o3)cn(CC(C)C)c(=O)c2cc1OC` came in with a z-score of -0.298. The value for `CCCN1Cc2cccc(C(=O)NCc3cccs3)c2C1=O` was -0.546; that for `CN(C)S(=O)(=O)c1cccc(NC(=O)COC(=O)c2ccc([N+](=O)[O-])o2)c1` was -0.334; that for `Clc1cccc(-c2nc(-c3ccccn3)no2)c1` was -0.35. As for `CCn1c(SCC(=O)Nc2nccs2)nnc1-c1ccncc1`, the z-score amounted to 1.43. The value for `CCC(C)(C(=O)NC1CCCC1)N(C(=O)CC1NC(=O)NC1=O)c1ccc(C)cc1` (stereo not given) was -0.192; that for `COc1ccc(C2C(C(=O)NCc3cccnc3)c3cc(OC)c(OC)cc3C(=O)N2C)cc1` (stereo not given) was 0.0295.

`CCC(=O)c1ccc(OCC(O)CN2CCN(c3ccc(F)cc3)CC2)cc1` (stereo not given) came in with a z-score of -0.155. With `O=C(CNC(=S)NC(=O)c1cccs1)c1ccccc1` the figure was active: 6.19. With `COCCNS(=O)(=O)c1cc(-c2nn(C)c(=O)c3ccccc23)ccc1C` the figure was -0.0441; with `Cc1ccc2c(C)c(C(=O)N(Cc3cccs3)C3CCS(=O)(=O)C3)oc2c1` (stereo not given), -0.396.

For `Fc1cccc(Nc2nc(-c3ccncc3)nc3ccccc23)c1`, the z-score is -0.256. On to `O=S(=O)(NCCO)c1cccc2cccnc12`, for which the z-score is -0.652.

In turn, `O=C1CC(C(=O)Nc2ccccc2)C2(CCCCC2)O1` (stereo not given) gave a z-score of -0.333. With `Cc1ccc(C)c(N(CC(=O)NC2CCCC2)C(=O)c2cc3cc4cccc(C)c4nc3s2)c1` the figure was -0.00669; with `CCOC(=O)C1=NN(c2ccccc2)C(c2ccccc2)CC1=O` (stereo not given), -0.374. The value for `COc1ccc(-c2cc(C(F)(F)F)nc(S(C)(=O)=O)n2)cc1` was -0.731; that for `Cn1c2ccccc2c2c(C(=O)N3CCN(c4ccccn4)CC3)cn(C3CCCC3)c(=O)c21` was -0.456.

The molecule `CCOC(=O)C1CCN(C(c2cc3cc(C)cc(C)c3[nH]c2=O)c2nnnn2C2CCCCC2)CC1` (stereo not given) yielded a z-score of -0.0618. With `CCC1CCC2(CC1)NC(=O)N(CC(=O)Nc1cc(C)on1)C2=O` (stereo not given) the figure was -0.158; with `Cc1cc(NC(=O)CCCN2C(=O)c3cccnc3C2=O)no1`, -0.0708; with `COc1cc(/C=N/NC(=O)c2cccc([N+](=O)[O-])c2)ccc1OCc1ccccc1`, -0.158. The molecule `CC1=Nn2c(nnc2-c2ccc(F)cc2)SC1` yielded a z-score of -0.251. For `CCc1ccc(NC(=O)CO/N=C(\C)c2cc3ccccc3o2)cc1`, the z-score is -0.0926. Molecule `Cc1ccccc1-n1c(=O)cc(NCc2ccc3c(c2)OCO3)[nH]c1=O` returned a z-score of 0.66.

The molecule `O=C(Cn1nnc(-c2cc(Cl)ccc2-n2cnnn2)n1)N1CCCc2ccccc21` showed a z-score of 0.0522. The value for `C=CCNC(=O)CN(c1cccc(Br)c1)S(C)(=O)=O` was -0.0984; that for `c1ccc2c(c1)nnn2Cc1nnc2sc(-c3ccc4c(c3)OCCO4)nn12` was -0.428. The value for `O=C(CN1C(=O)c2ccccc2S1(=O)=O)NCCSCc1ccco1` was -0.602. With `Brc1ccc(-c2nnc(-c3ccc4c(c3)OCO4)o2)o1` the figure was 0.244; with `CCOc1cc(-c2noc(N)c2C#N)cc(OCC)c1OCC`, -0.627. With `COc1ccccc1OCCCn1cc(C#N)c2ccccc21`, the z-score was -0.879. `O=C(c1ccc(N2CCOCC2)nc1)N1CCCCC1`: the z-score was -0.222. In the case of `COc1ccc(-c2cc(=O)[nH]c(NCc3ccccc3)n2)cc1`, the z-score is 0.373.

`CCN(CCCNC(=O)CCNC(=O)Cn1cnc2ccccc2c1=O)c1ccccc1` showed a z-score of 0.554. In the case of `Cc1cccc(/C=N/NC(=O)C(C)Nc2cccc3ccccc23)n1` (stereo not given), the z-score turned out to be 0.282.

As for `N#Cc1ccccc1NC(=O)CNc1ccccc1N1CCCCC1`, the z-score was -0.555.

For `O=C(CSc1nnc(C2COc3ccccc3O2)o1)N1CCCCC1` (stereo not given), the z-score was 1.26.

Molecule `COc1ccc(C(=O)C[n+]2ccccc2/C=N/O)cc1` yielded a z-score of -0.11.

On to `C=CCn1c(CCC(=O)Nc2ccc(C)c(Cl)c2)nnc1SCC(=O)Nc1ccccc1C`, for which the z-score is -0.404. With `CCNc1nc(N)nc(Oc2ccc(OCCOc3ccc(Cl)cc3Cl)nn2)n1`, the z-score is -0.437. With `O=C(Nc1ccccc1)N(Cc1ccccc1)Cc1ccccc1` the figure was -0.268; with `O=C(CSc1nnc(-c2ccncc2)n1Cc1ccccc1)Nc1nccs1`, -0.69; with `CC(=O)N1CCN(c2nc(CC(C)C)c3c(c2C#N)CCC3)CC1`, -1.22. With `O=C(C1=C[C@@H]2[C@H]3C(=O)N(c4ccccc4Cl)C(=O)[C@H]3[C@@H](C(=O)c3ccc(Cl)cc3)N2C=C1)c1ccccc1` the figure was -0.166; with `COc1ccc(Br)cc1S(=O)(=O)N(CC(=O)N1CCOCC1)c1ccccc1`, 0.619; with `Cc1cccc(-n2c(C)cc(/C=C3\C(=N)N4N=C(CC(C)C)SC4=NC3=O)c2C)c1`, -0.0124. With `O=C(CSC1=Nc2ccccc2C2=NC(CC(=O)NCc3ccco3)C(=O)N12)NCC1CCCO1` (stereo not given) the figure was -0.919. As to `O=C(O)CCN1C(=O)C(=C2CCCCCC2)SC1=S`, the z-score amounted to 0.174.

In turn, `CC1(C)Cn2c(nnc2-c2ccccc2)S1` came in with a z-score of -0.598. The value for `N#Cc1ccc2ccn(CC(=O)NC3CCCCC3)c2c1` was -0.34; that for `COc1cc2c(cc1OC)C1(CCCC1)C(N)=C2C#N` was -0.0387; that for `Cc1occc1-c1nnc(SCC(=O)Nc2nc3ccccc3s2)o1` was -0.0715. The value for `COc1ccc(CN2CCCCC2C)cc1OC` (stereo not given) was 0.00608; that for `Cc1oc(-c2cccc(Cl)c2)nc1CN1CCC(C(=O)NCC2CCCO2)CC1` (stereo not given) was -0.375; that for `CN1CCOc2cc(S(=O)(=O)Nc3ccc(F)cc3)ccc21` was -0.576.

For `Cc1ccc(C(=O)C(NC(=O)c2ccco2)Nc2sc3c(c2C(N)=O)CCCC3)cc1` (stereo not given), the z-score was -0.0556. For `O=C(Oc1cccnc1)c1ccc(Cl)cc1`, the z-score is 0.69. On to `Cc1cccc(C(=O)N[C@H](C(=O)OCc2cc(=O)n3c(n2)sc2ccccc23)C(C)C)c1`, for which the z-score is -0.334. On to `COc1cccc(-c2nc(NCC3CCCO3)c3ccccc3n2)c1O` (stereo not given), for which the z-score is -1.4. With `O=c1oc2ccccc2cc1-c1nc2c(s1)CCc1ccccc1-2` the figure was -0.0605; with `CCCc1cc(=O)n2[nH]c(-c3ccco3)nc2n1`, -0.487. With `O=C(Cc1c(F)cccc1Cl)c1ccc(O)cc1O` the figure was 0.0496; with `OCCN1CCN(CC(O)COc2ccc3c(c2)OCO3)CC1` (stereo not given), 0.153. With `COc1ccc(C(NC(=O)/C=C/c2ccco2)c2ccc(OC)cc2)cc1` the figure was -0.228; with `NC(=O)c1sc2nc3c(c(-c4ccc(Cl)cc4)c2c1N)CCCC3`, 0.0711.

`c1csc(CCNc2ncnc3sc4c(c23)CCC4)c1`: the z-score is -2.7. `Cc1cccc(OCCCSc2nc3ccc(C)cc3[nH]2)c1` registered a z-score of -0.21.

In the case of `CCN(CC)CCNC(=O)c1ccc(CS(=O)(=O)c2ccc(Br)cc2)o1`, the z-score was -0.192. With `O=C(Nc1ccsc1C(=O)NC1CCCCC1)c1ccc(F)cc1` the figure was -0.191; with `COc1ccc(-c2nc(Cn3c(SCc4ccccc4F)nc4ccncc43)c(C)o2)cc1`, -0.489. The value for `CCc1nc2c(oc3ccccc32)c(=O)[nH]1` was 0.0775; that for `COc1ccc(-n2c(N)c(C(=O)NCc3cccnc3)sc2=S)cc1` was 0.463.

`CN(c1ccc(O)cc1)c1nc(-c2ccccc2)cs1` registered a z-score of 0.237. With `CCCCn1c(SCC(=O)Nc2cc(C)on2)nc2ccccc2c1=O` the figure was -1.45; with `COc1ccc(/C=C(\NC(=O)/C=C/c2ccco2)C(=O)NCCc2nc3ccccc3[nH]2)cc1`, -0.23; with `NC(=O)CN1C(=O)C(O)(CC(=O)c2ccccc2O)c2ccccc21` (stereo not given), 0.483. With `CC(C)CNC(=O)c1cccc(C(=O)NCC(C)C)c1` the figure was -0.0332; with `CN1CCN(CC(O)COc2ccc(OCC(O)CN3CCN(C)CC3)cc2)CC1` (stereo not given), 1.63; with `CN(Cc1ccccc1)S(=O)(=O)c1ccc(OCC(=O)Nc2cccc([N+](=O)[O-])c2)cc1`, -0.459. With `Cc1ccc2ccccc2c1COC(=O)c1nonc1N` the figure was -0.143.

The record behind these values is PubChem BioAssay AID488969 (Vanderbilt High Throughput Screening Facility, 2010).
